Among all 150,000 compounds or so, about 540 (0.36%) showed an effect of 50% or more. Some of the results follow.
System: Plasmodium falciparum
Experiment: Primary screen in NF54 nanoGlo assay, in single point, at 2uM, 72h; a lower Z score goes with more inhibition
Type: functional, Erythrocyte
Details: timepoint 72 hour

SMILES	% Inhibition [%]	Z score
CN1CCN(CC2CN(Cc3nc4ccccc4[nH]3)CC2CO)CC1 (centres undefined)	-11	1.82
Cc1cc(NCc2ccnc(O[C@H]3CCOC3)c2)nc(-c2ccncc2)n1	-6	1.04
Cc1ccc2c(c1)c(CNC(=O)CCc1nc3cc(C)c(C)cc3[nH]1)nn2C	-10	1.45
COC1CN(C(=O)c2cc(-c3ccccc3)nn2C)CC1Cc1cc(C)no1 (centres undefined)	-6	1.31
Cc1nsc(NCc2cc(C(F)(F)F)on2)n1	-2	0.27
CC(C)Oc1cccc(F)c1-c1ccccc1CN1CCNCC1	-17	2.59
O=C(CCC(=O)N1CCCCCC1)NCc1nc2cc(F)ccc2[nH]1	-8	1.3
COc1cnc(-c2nc(-c3ccc(Oc4cccc(N(C)C)c4)cc3)no2)c(F)c1	-11	1.89
O=C(NCCc1c[nH]c2cc(Cl)ccc12)N1CCC[C@@H]1CN1CCOCC1	-13	2.03
CCc1ccc(CN(C)C(=O)C2(C)CCC(C(=O)N(C)C)C2(C)C)nc1 (centres undefined)	1	-0.14
CCc1nnc(CNC(=O)c2cnn3ccn(C)c23)o1	-11	2.46
Cc1cc(NCC2(Nc3ccccc3)CCCCC2)c2ccccc2n1	17	-2.51
Cc1[nH]c2ccc(F)cc2c1CC(=O)N1C2CCNCC1CC2 (centres undefined)	6	-1.17
Cc1nn(C)c(C)c1CN(CCO)CC(=O)Nc1cccc(F)c1C	-11	2.41
C[C@H](Nc1nccc(N2CCOCC2)n1)c1ccc2ccccc2c1	-5	0.93
O=C(Cc1c[nH]c2cc(F)ccc12)Nc1ccc(-c2nnco2)cc1	-4	0.89
CNC(=O)C[C@H](C)N(C)C(=O)c1cccc(-c2cnc3[nH]ccc3c2)c1	-3	0.48
Cc1ccc(CN2CCCN(c3cccnn3)CC2)c(-c2cnn(C)c2)c1	1	-0.18
CC(C)CC(=O)[C@H]1CCCN(C(=O)c2ccc(NCC3CCN(C)CC3)nc2)C1	-3	0.58
CC(=O)N1CCC[C@H](CNc2nccc(-c3c(C)nn(C)c3C)n2)C1	-3	0.4
O=C(CCc1ccsc1)N1CCN(c2ncnc3ccccc23)CC1	-7	1.15

SMILES	% Inhibition [%]	Z score
NC(=O)CN1CCC(Nc2nc(N)nc3[nH]cnc23)CC1	3	-0.55
CCOc1ccc(C2CN(C(C)=O)C(c3ccc(Cl)cc3)c3[nH]c4ccccc4c32)cc1OC (centres undefined)	-6	0.87
c1cc(OCCN2CCCC2)ccc1CN[C@H]1CCCC2(C1)N=N2	-7	1.12
CC1CN(c2ccccc2CN[C@@H](C)C(=O)OC(C)(C)C)CCO1 (some centres undefined)	0	0.05
CC(C)(C)[C@@H]1CN(S(=O)(=O)c2cnn3c2OCCC3)CCO1	-16	3.21
O=C(Oc1ccc2ncccc2c1)C1(c2ccc(F)cc2)CCC1	-4	0.74
c1c(NCCCOC2CCOC2)nc(NCCCOC2CCOC2)nc1C1CC1 (centres undefined)	12	-2.68
CCN(CC)CCNC(=O)COc1ccc(-c2ccc3c(c2)OCO3)cc1CN1CCC[C@H](C)C1	3	-0.59
c1ccc(N2CC[C@H](NCc3ccccc3N3CCOCC3)C2)nc1	6	-0.99
CC(C)NS(=O)(=O)c1c[nH]c(C(=O)NC[C@H](C)N2CCN(c3ccccc3)CC2)c1	-6	0.97
O=C1OCCN1c1cccc(Nc2nc3ccccc3o2)c1	13	-2.21
CCc1oc(C(=O)N2CC(O)C(Cc3cc(C)no3)C2)cc1CN1CCCC1 (centres undefined)	3	-0.57
Cc1cccc2oc(CNC(=O)c3ccc(N4CCN(C)CC4)cc3)nc12	-7	1
CCc1cc(N2CCC(NCc3nc[nH]c3C)CC2)nc(N2CCOCC2)n1	-1	0.3
COc1ccc([C@@H](NC(=O)Nc2cccc(-n3ccnn3)c2)C2CC2)cn1	-10	2.07
Clc1ccc2cnc(-c3ccccc3OC[C@H]3CCOC3)n2c1	4	-0.61
CCc1cc(N2CCC(NC[C@@H]3C[C@H](F)CN3)CC2)nc(N2CCCC2)n1	1	-0.12
COc1ccc([C@H](CNc2cc(C(F)(F)F)nc3ccccc23)N2CCCC2)cc1	-4	0.63
Cc1cc(-c2ccc(C(=O)N3CCN([C@H]4CCNC4)CC3)cc2)cnc1N	-13	2.01
COc1ccc(-c2nc(CC(=O)N[C@H]3CCCc4c3[nH]c3ccccc43)cs2)cc1OC	3	-0.56
Cc1nc(C)c(C(=O)NCCNc2ccc(Nc3ccncc3)nn2)s1	3	-0.54

SMILES	% Inhibition [%]	Z score
Cn1nccc1CN1C[C@@H](F)C[C@H]1CNc1nc2ccccc2[nH]1	-4	0.62
CCn1cc(-c2cccc(C(=O)N[C@@H](C)CN3CCc4ccccc4C3)c2)cn1	53	-10.47
CN1CC(=O)N2C[C@@H](NC(=O)c3cccc(-c4ccc(N)nc4)c3)C[C@H]2C1=O	-16	2.42
NC1CCCC2CN(c3ncnc4[nH]ccc34)CC12 (centres undefined)	-9	1.83
CN(C[C@H]1CCOC1)c1ncccc1S(=O)(=O)NCC1CC1	-5	0.8
CCn1ccc2ccc(-c3c(-c4ccccc4)ncn3C[C@H](O)COC)cc21	-3	0.58
CCN1CCC[C@@H]1C/N=c1/c(N2CCN(C)CC2)c(O)c1=O	5	-1.05
CN(C)Cc1ccccc1NC(=O)c1cccc2c(=O)c3ccccc3[nH]c12	-2	0.38
c1cnc2[nH]cc(CCN3CCNCC3)c2c1	-4	0.76
CC1CCC(C(N)=O)CN1C(=O)COc1ccc(Cl)c2cccnc12 (centres undefined)	0	0
Cc1cc(N(C)C)nc(NCCNS(=O)(=O)c2ccc(OC(F)(F)F)cc2)n1	14	-2.05
CCN(CC)c1ccc(CNC(=O)c2cccc(Nc3ccc(-c4ccccc4)nn3)c2)cc1	-18	3.07
O=C(c1cccc(-c2ccc(-c3cnco3)s2)c1)N1CCCNCC1	1	-0.13
Cc1ccccc1CN1CCCN(C(=O)CN2CCC3C(CCCN3C)C2)CC1 (centres undefined)	7	-1.47
Nc1ccc(-c2nc3c(Cl)c(N)c(Cl)cc3[nH]2)cc1Cl	-1	0.16
Cc1ccc(C)c(-c2cc3nncn3c(N)n2)c1	0	-0.05
CN1CCc2ccc(S(=O)(=O)Nc3cccc([C@@]4(C)NC(=O)NC4=O)c3)cc21	-9	1.65
O=C(CNc1cccc(Br)c1)Nc1ccccc1Oc1ccccc1	-10	1.81
CN(Cc1cccc2ncccc12)C(=O)c1cnc(Nc2ccccc2)nc1	-11	2.13
C[C@@H](CS(C)(=O)=O)N(C)C(=O)c1cc(C(F)(F)F)n(C)n1	7	-1.41
COc1ccc(CCN2CCC(CN(C)Cc3cnc(N4CCOCC4)s3)CC2)cc1	1	-0.16

SMILES	% Inhibition [%]	Z score
Cc1nc2ccc(C(=O)NCc3cc4n(n3)CCN(CC(C)C)C4)cc2o1	-5	0.71
C[C@H]1CCCCN1C1CN(c2ncc(F)c(N3CCOCC3)n2)C1	-12	2.15
CN1CCC(N2CC[C@H](N(C)C(=O)c3ccc4[nH]c(C(F)F)nc4c3)C2)CC1	-10	1.56
CNc1nc(C)cc(N[C@@H]2COc3ccccc3C2)n1	44	-7.66
Cc1cc(=O)[nH]c(-n2nc(C)cc2NC(=O)C(=O)N2CCC[C@H](C)C2)n1	4	-0.54
CCN1CCC2CCC(C1)N2C(=O)NCc1cccc2cccnc12 (centres undefined)	-1	0.18
Cc1cc(N2CCC(NC(=O)Nc3cc(-c4ccccc4)on3)CC2)nc(C)n1	7	-1.52
Cc1cccc([C@@H](O)CNCc2ccc(N(C)C(C)C)nc2)c1	-7	1.22
Cn1ncc2ccc(CNc3nccc(N4CCOCC4)n3)cc21	9	-1.38
c1cncc(-c2nc(CCNC3CCN(Cc4ccco4)CC3)cs2)c1	10	-1.8
CN1CC[C@H](CNc2nccc3cc(C(F)(F)F)ccc23)CC1=O	-8	1.28
COc1cc(C)nc(N2CCN(CC(=O)NC3CCN(C(C)C)CC3)CC2)n1	0	0.07
c1coc(CN2CCC(N3CCC[C@H](c4nc5ccccc5o4)C3)CC2)c1	-7	1.14
CNc1ccc(Nc2ncc(Cl)cn2)cn1	-13	2.77
CC(C)(C)OC(=O)N1CCCC(C(=O)NC2CCCN(c3ncnc4sccc34)C2)C1 (centres undefined)	-1	0.22
C[C@H]1CN(c2cccc(F)c2)CCN1c1ccc(C(=O)O)nn1	10	-2.22
Cc1nc(-c2cccc(NC(=O)C(=O)N3Cc4ccccc4C3)c2)n[nH]1	2	-0.37
c1ccc(-c2csc3nc(C4CC4)nc(NCc4ccnc(N5CCOCC5)c4)c23)cc1	7	-1.59
c1cc(CN2CCOCC2)cc(-c2cnc3[nH]cnc3c2)c1	0	-0.01

Reference: ChEMBL document CHEMBL5308541, “MAIP: An Open-Source Tool to Enrich High-Throughput Screening Output and Identify Novel, Druglike Molecules with Antimalarial Activity” (ACS Med Chem Lett, 2023)
